Laboratory results reported in the RNAGym collection of RNA variant scans (doi:10.7554/elife.90254).
The source gives no read counts; variants with many changes may rest on few reads.

B1: LINE1-full (parent)
chain: UACGUAGGUGGUUUUCCCCUGAUAGUGCUAAGGGGGCCUGGAAGUUUGGACUGGGCAGAGCUCAACACAGCGUGGCAAAGUGGCUGUGGCUAGACUGCCUCUCUGGAUUCCUCGUCACUCAGCAGGGCAUCUCUGAGAGAAAUGCC

Variants of: B1
Test: self-cleavage, relative activity (ratio to wild type); higher = more cleavage; in vitro, sequencing; the parent is a self-cleaving ribozyme

Question: Which self-cleavage does the source give for UACGUAGGUGGUUUUCCCUUGAUAGAGCUAAGGGGGCCUGGAAGUCUGGACUGGGCAGAGCUCAACACAGCGCGGCAAAGUGGCUGUGGCUAGACUGCCUCUCUGGAUUCCUCGUCACUCAGCAGGGCAUCUCUGAGAGAAAUGCC [C19U U26A U46C U73C] here?
Answer: 1.36

Question: Which self-cleavage does the source give for UACGUAGGUGGUUUUCCCUUGAUAGUGCUAAGGGGGCCUGGAAGUUUGGACUGGGCAGAGCUCAACACAGCGUGGCAAAGUGGCCGUGGCUAGACUGCCACUCUGGACUCCUCGUCACUCAGCAGGGCAUCUCUGAGAGAAAUGCC [C19U U85C U100A U108C] here?
Answer: 0.16

Question: With UACGUAGGUGGUUUUCCCUUGAUAGUGCUAAGGGGGCCUGGAAGUUUGGACUGGGCAGAGCUCAACACAGCGUGGCAAAGUGGCAGUGGCUAGACUGCCUCUCUGGAUUCCUCGUCACUCAGCAGGGCAUCUCUGGGAGAAAUGCC [C19U U85A A136G] as the variant, how does the self-cleavage read?
Answer: 0.06

Question: With UACGUAGGUGGUUUUCCCUUGAUAGUGCUAAGGGGGCCUGGAAGUUUGGACUGGGCAGAGCUCAACACAGCGUGGCAAAGUGGCUGUGGCUAGACUGCCUCUCUGGAUUCCUCGUCACUCAGCAGGGCACAUCUGAGAGAAAUGCC [C19U U130C C131A] as the variant, how does the self-cleavage read?
Answer: 1.06

Question: With UACGUAGGUGGUUUUCCCUUGAUAGUGCUAAGGGGGCCUGGAAGUUUGGACUGGGCAGAGCUCAACACAGCGUGGCAAAGUGGCUGUGGCUAGACUGCCUCUCUGGAUACCUCGUCACUCAGCAGGGCGUCUCUGAGAGAAAUGCC [C19U U109A A129G] as the variant, how does the self-cleavage read?
Answer: 2.1

Question: With UACGUAGGUGGUUUUCCCUCGAUAGUGCUAAGGGGGCCUGGAAGUUUGGACUGGGCAGAGCUCAACACAGCGUGGCAAAGUGGCUGUGGCUAGACUGCCCCUCUGGAUUCCUCGUCACUCAGCAGGGCAUCUCUGAGAGAAAUGCC [C19U U20C U100C] as the variant, how does the self-cleavage read?
Answer: 1.23

Question: Which self-cleavage does the source give for UACGUAGGUGGUUUUCCCUUGAUAGUGCUAAGGGGGCCUGGAAGUUCGGACUGGGCAGAGCUCAACACAGCGUGGCAAAGUGGCUGUGGUUAGACUGCCUCUCUGGAUUCCUCGUCACUCAGCAGGGCAUCUCUGAGAGAAAUGCC [C19U U47C C90U] here?
Answer: 0.04

Question: For UACGUAGGUGGUUUUCCCUUGAUAGCGCUAAGGGGGCCUGGGAGUUUGGACCGGGCAGAGCUCAACACAGCGUGGCAAAGUGGCUGUGGCUAGACUGCCUCUCUGGAUUCCUCGUCACUCAGCAGGGCAUCUCUGAGAGAAAUGCC [C19U U26C A42G U52C], which self-cleavage is on record?
Answer: 1.38

Question: With UACGUAGGUGGUUUUCCCUUGAUAGUGCUAAGGGGGCCUGGAAGUUUGGACUGGGCAGAGCUCAACACAGCGUGGCAAAGUGGCCGUGGCCAGACUGCCUCUCUGGAUUCCUCGUCACUCAGCAGGGCGUCUCUGAGAGAAAUGCC [C19U U85C U91C A129G] as the variant, how does the self-cleavage read?
Answer: 0

Question: Which self-cleavage does the source give for UACGUAGGUGGUUUUCCCUUGACAGUGCUAAGGGGGCCUGGAAGUUUGAACUGGGCAGAGCUCAGCACAGCGUGGCAAAGUGGCUGUGGCUAGACUGCCUCUCUGGAUUCCUCGUCACCCAGCAGGGCAUCUCUGAGAGAAAUGCC [C19U U23C G49A A65G U119C] here?
Answer: 0.14

Question: For UACGUAGGUGGUUUUCCCUUGAUAGUGCUAAGGGGGCCUGGAAGUUCGGACUGGGCAGAGCUCAACACAGCGUGGCAAAGUGGCUGUGGCUAGACUGCCUCUUUGGAUUCCUCGUCACUCAGCAGGGCAUCUCUGAGAGAAAUGCC [C19U U47C C103U], which self-cleavage is on record?
Answer: 1

Question: With UACGUAGGUGGUUUUCCCCAGAUAGUGCUGAGGGGGCCUGGAAGUAUGGACUGGGCGGAGCUCAACACAGCGUGGCAAAGUGGCUGUGGCUAGACUGCCUCUCUGGAUUCCUCGUCACUCAGCAGGGCAUCUCUGAGAGAAAUGCC [U20A A30G U46A A57G] as the variant, how does the self-cleavage read?
Answer: 1.08

Question: With UACGUAGGUGGUUUUCCCCAGAUAGUGCUGAGGGGGCCUGGAAGUUUGGACUGGGCAGAGCUCAACUCAGCGUGGCAAAGUGGCCGUGGCUAGACUGCCUCUCUGGAUUCCUCGUCACUCAGCAGGGCAUCUCUGAGAGAAAUGCC [U20A A30G A67U U85C] as the variant, how does the self-cleavage read?
Answer: 0.22

Question: For UACGUAGGUGGUUUUCCCUUGAUAGUGCUAAGGGGGCCUGGAAGUUUGGACUGGGCAGAGCUCAACACAGCGUGGCAAAGUGGCUGUGGCUAGACUGCCACUCUGGAUUCCUCGCCACUCAGCAGGGCAUCUCUGAGGGAAAUGCC [C19U U100A U115C A138G], which self-cleavage is on record?
Answer: 2.92

Question: Which self-cleavage does the source give for UACGUAGGUGGUUUUCCCCAGUUAGUGCUAAGGGGGCCAGGAAGUUUGGACUGGGCAGAGCUCAACACGGCGUGGCAAAGUGGCUGUGGCUAGACUGCCUCUCUGGACUCCUCGUCACUCAGCAGGGCAUCUCUGAGAGAAAUGCC [U20A A22U U39A A69G U108C] here?
Answer: 0

Question: For UACGUAGGUGGUUUUCCCUUGAUAGUGCUAAGGGGGCCUGGAAGUUUGCACUGGGCAGAGCUCAACACAGCGUGGCAAAGUGGCUGUGGCUAGACUGCCUCUCUGGGUUCCUCGUCACUCAGCAGGGCAUCUCUGAGAGAAAUGCC [C19U G49C A107G], which self-cleavage is on record?
Answer: 1.26

Question: Which self-cleavage does the source give for UACGUAGGUGGUUUUCCCCAGGUAGUGCUAAGGGGGCCUGGAAGUUUGGUCUGGGCAGAGCUCAACACAGCGUGGCAAAGUGGCUGUGGCUAGACUGCCUCUCUGGAUUCCUCGUCACUCAGCAGGGCAUCUCUGAGAGAAAUGCC [U20A A22G A50U] here?
Answer: 0.69

Question: For UACGUAGGUGGUUUUCCCUUGAUAGUGCUAAGGGGGCCUUGAAGUUUGGACUGGGCAGAGCUCAACACAGCGUGGCAAAGUGGCUGUGGCUAGACUGCCUCUCUGGAUUCCUCGCCACUCAGCAGGGCAUCUCUGAGAGAAAUGCC [C19U G40U U115C], which self-cleavage is on record?
Answer: 0

Question: With UACGUAGGUGGUUUUCCCUUGAUAGUGCUAAGGGGGCCUGGAAGUUUGGACAGGGCAGAGCUCAACACAGCGUGGCAAAGUGGCUGUGGCUAGACUGCCUCUCUGGAUUCCUCGUCACUCAGCGGGGCAUCUCUGAGAGAAAUGCC [C19U U52A A124G] as the variant, how does the self-cleavage read?
Answer: 0.83
